{"source": "PubChem BioAssay (Tox21)", "note": "“And” between values parts separate entries of the source, which are not always exact repeats. Equal entries are not always repeated. The inconclusive results got no clear call from the source; some entries with a clear call stand among them for comparison. Potencies of inconclusive entries are doubtful fits and often do not repeat. The source made the active and inactive calls. The call rests on the fitted dose curve; in most records, active means well fitted cell-killing curve with a large enough effect in the repeat runs; inconclusive means weak or mixed curves; inactive means no such curve, though single readings can be large or run the other way. On the % scale 0 is the no-effect control and ±100 the full control effect; potency means the concentration at half of the fitted maximal effect; tags describe the fitted curve by direction and shape.", "data": [{"assay": "qHTS assay to identify small molecule antagonists of the peroxisome proliferator-activated receptor delta (PPARd) signaling pathway - cell viability counter screen (AID 743213); further: nearly all actives have a fitted effect of over 50% in size", "conditions": "PPARd-bla HEK293H viability, CellTiter-Glo luminescence, 17 h; viability change, negative = cytotoxic: at 62 µM (top of the series) unless noted", "excerpt": "U.S. Tox21 Program National Center for Advancing Translational Sciences [NCATS] NIH Chemical Genomics Center [NCGC] U.S. Environmental Protection Agency [EPA] National Institutes of Environmental Health Sciences [NIEHS] National Toxicology Program [NTP] U.S. Food and Drug Administration [FDA] Tox21 Assay Overview: The peroxisome proliferator-activated receptors (PPARs) are lipid-activated transcription factors of the nuclear receptor superfamily with three distinct subtypes namely PPAR alpha, PPAR delta (PPARd) and PPAR gamma. All these subtypes heterodimerizes with Retinoid X receptor (RXR) and have different physiological functions. […] To identify the compounds that inhibit PPAR-delta signaling, GeneBLAzer PPAR delta UAS-bla HEK293H cell line (Invitrogen, Carlsbad, CA, USA) containing a beta-lactamase reporter gene under the control of an Upstream Activator Sequence (UAS) was used to screen the Tox21 compound library. The cytotoxicity of the Tox21 compound library against the PPARd-bla cell line was tested in parallel by measuring the cell viability using CellTiter-Glo assay (Promega, Madison, WI) in the same wells.\nTox21 Assay Protocol Summary: PPARd-bla cells were dispensed at 3000 cells/5uL/well in 1536-well black wall/clear bottom plates using a Multidrop Combi (Thermo Fisher Scientific, Waltham, MA) dispenser. After the assay plates were incubated at 37 C and 5% CO2 for 5 h, 23 nL of compounds dissolved in DMSO, positive controls or DMSO only was transferred to the assay plate by a Pintool station (Kalypsys, San Diego, CA), followed by addition of 1ul L165041 (300 nM, final concentration in the wells). The assay plates were incubated at 37 C for 17 h, and then 1 uL of LiveBLAzerTM B/G FRET substrate was added using a Bioraptr Flying Reagent Dispenser (FRD) workstation (Beckman Coulter, Indianapolis, IN, USA). The assay plates were incubated at room temperature for 2 h and fluorescence intensity was measured by an Envision plate reader (PerkinElmer, Shelton, CT). For cell viability readout that measures cytotoxicity, 3 ul/well of CellTiter-Glo reagent was added into the assay plates using a Bioraptr FRD. After 30 min incubation at room temperature, the luminescence intensity in the plates was measured using a ViewLux plate reader (PerkinElmer).", "values": [{"smiles": "O=C(NO)c1ccccc1", "Potency": "inconclusive: 5.23 µM [cytotoxic, single point]"}, {"smiles": "Cc1ccc(O)c2ncccc12", "Potency": "active: 1.19 µM"}, {"smiles": "CCc1cccc(C)c1N", "Potency": "inactive"}, {"smiles": "CCCCC(CC)CN=C(N)NC(N)=NCCCCCCN=C(N)NC(N)=NCC(CC)CCCC", "note": "(stereo not given)", "Potency": "active: 8.41 µM"}, {"smiles": "CC(C)(c1cc(Br)c(OCCO)c(Br)c1)c1cc(Br)c(OCCO)c(Br)c1", "Potency": "active: 42.7 µM"}, {"smiles": "O=C(Nc1ccc(Cl)cc1)Nc1ccc(Cl)c(Cl)c1", "Potency": "active: 19.4 µM and inconclusive: 616 nM [cytotoxic, full curve] and inconclusive: 2.98 µM [cytotoxic, single point]"}, {"smiles": "CSCCC=O", "Potency": "inactive"}, {"smiles": "CCCCC(CC)CN1CN(CC(CC)CCCC)CC(C)(N)C1", "note": "(stereo not given)", "Potency": "inconclusive: 33.5 µM [cytotoxic, single point]"}, {"smiles": "O=C1c2c(O)ccc([N+](=O)[O-])c2C(=O)c2c([N+](=O)[O-])ccc(O)c21", "Potency": "active: 13.7 µM"}, {"smiles": "CCCCCN=C(N)N/N=C/c1c[nH]c2ccc(OC)cc12", "Potency": "active: 33.5 µM"}, {"smiles": "O=c1n(CCO)c(=O)n(CCO)c(=O)n1CCO", "Potency": "inconclusive: 61.7 µM [cytotoxic, single point]"}, {"smiles": "Clc1ccc2n[nH]nc2c1", "viability change, negative = cytotoxic": "inactive: 15.4%"}, {"smiles": "CN1CCN(CCCN2c3ccccc3Sc3ccc(C(F)(F)F)cc32)CC1", "Potency": "active: 26.6 µM"}, {"smiles": "COc1cccc(-c2ccc(/C=C\\CN3CCCCCC3)cc2Cl)c1", "Potency": "inconclusive: 43.4 µM [cytotoxic]"}, {"smiles": "CC(C)(C)NC(=O)[C@@H]1C[C@@H]2CCCC[C@@H]2CN1C[C@@H](O)[C@H](Cc1ccccc1)NC(=O)[C@H](CC(N)=O)NC(=O)c1ccc2ccccc2n1", "Potency": "active: 44.2 µM"}, {"smiles": "CN(C)CCN(Cc1cccs1)c1ccccn1", "Potency": "inactive"}, {"smiles": "CCCCCCCCNC(C)C(O)c1ccc(SC(C)C)cc1", "note": "(stereo not given)", "Potency": "active: 8.41 µM"}, {"smiles": "Oc1cc2ccccc2c2ccccc12", "Potency": "active: 5.49 µM"}, {"smiles": "OCCO", "Potency": "inactive"}, {"smiles": "Cc1ccc(S(=O)(=O)Oc2ccc(N=Nc3ccc(-c4ccc(N=Nc5c(O)ccc6cc(S(=O)(=O)O)cc(S(=O)(=O)O)c56)c(C)c4)cc3C)cc2)cc1", "Potency": "inconclusive: 24.6 µM [cytotoxic, partial curve, poor fit] and inconclusive: 17.9 µM [cytotoxic, partial curve, poor fit]"}, {"smiles": "O=S1(=O)CC(Cl)(Cl)C(Cl)(Cl)C1", "Potency": "active: 3.89 µM"}, {"smiles": "CCCN(CCC)c1c([N+](=O)[O-])cc(C(F)(F)F)c(N)c1[N+](=O)[O-]", "Potency": "active: 30.8 µM"}, {"smiles": "CC(=O)O[C@]1(C(C)=O)CC[C@H]2[C@@H]3C=C(C)C4=CC(=O)CC[C@]4(C)[C@H]3CC[C@@]21C", "Potency": "inconclusive: 0.0596 µM [cytotoxic, full curve, poor fit]"}, {"smiles": "CC/C(=C(\\c1ccc(O)cc1)c1ccc(OCCN(C)C)cc1)c1ccccc1", "Potency": "active: 21.9 µM"}, {"smiles": "O=C1CCC/C=C\\CCCCCCCCCC1", "Potency": "inconclusive: 54.9 µM [cytotoxic, single point]"}, {"smiles": "CCc1cc(Cc2cc(CC)c(N)c(CC)c2)cc(CC)c1N", "Potency": "active: 54.9 µM"}, {"smiles": "CC(C)(c1cc(Br)c(O)c(Br)c1)c1cc(Br)c(O)c(Br)c1", "Potency": "inconclusive: 4.35 µM [cytotoxic, full curve, poor fit] and inconclusive: 61.5 µM [cytotoxic, single point] and inconclusive: 58.3 µM [cytotoxic, single point]"}, {"smiles": "CC(C)(c1ccccc1)c1ccc(Nc2ccc(C(C)(C)c3ccccc3)cc2)cc1", "Potency": "inconclusive: 0.436 µM [cytotoxic, full curve, poor fit]"}, {"smiles": "COc1ccc(-n2nc(CCC(=O)N(C)O)cc2-c2ccc(Cl)cc2)cc1", "Potency": "inconclusive: 33.5 µM [cytotoxic, single point]"}, {"smiles": "CC1CCCNC1", "note": "(stereo not given)", "Potency": "inconclusive: 0.0012 µM [cytotoxic, full curve, poor fit]"}, {"smiles": "C[C@H]1O[C@@H](O[C@H]2CC[C@@]3(C)[C@H](CC[C@@H]4[C@@H]3C[C@@H](O)[C@]3(C)[C@@H](C5=CC(=O)OC5)CC[C@]43O)C2)C[C@H](O)[C@@H]1O[C@H]1C[C@H](O)[C@H](O[C@H]2C[C@H](O)[C@H](O[C@@H]3O[C@H](CO)[C@@H](O)[C@H](O)[C@H]3O)[C@@H](C)O2)[C@@H](C)O1", "Potency": "inconclusive: 2.66 µM [cytotoxic, partial curve, poor fit]"}, {"smiles": "O=C(Oc1cccc2cccnc12)c1ccccc1", "Potency": "active: 4.22 µM"}, {"smiles": "CC(C)(C)c1ccc(C(=O)CCCN2CCC(OC(c3ccccc3)c3ccccc3)CC2)cc1", "Potency": "active: 16.8 µM"}, {"smiles": "CCCCCCCCCCCCCCCCC(C(=O)O)C(O)(CC(=O)O)C(=O)O", "note": "(stereo not given)", "Potency": "active: 18.8 µM"}, {"smiles": "CC(C)(C)c1ccc(O)c(O)c1", "Potency": "inconclusive: 56.8 µM [cytotoxic] and inconclusive: 61.6 µM [cytotoxic]"}, {"smiles": "CCCCCCCCCCCCCCCC[N+](C)(C)Cc1ccccc1", "Potency": "active: 22.6 µM and active: 9.94 µM and active: 13.3 µM"}, {"smiles": "CCOC(=O)C1=C(C)NC(C)=C(C(=O)OCC)C1c1ccccc1/C=C/C(=O)OC(C)(C)C", "Potency": "active: 18.8 µM"}, {"smiles": "CN[C@H]1CC[C@@H](c2ccc(Cl)c(Cl)c2)c2ccc(S(N)(=O)=O)cc21", "Potency": "active: 12.3 µM"}, {"smiles": "Cc1cc(CCN2CCN(c3nsc4ccccc34)CC2)cc2c1NC(=O)CC2(C)C", "Potency": "active: 19.5 µM"}, {"smiles": "O=C(O)c1ccccc1C(c1ccc(O)cc1)c1ccc(O)cc1", "viability change, negative = cytotoxic": "inactive: -1.02%"}]}]}
